Here are results for 60 compounds from the supplement of paper PMC9446081.

Among all 39,000 compounds or so, about 220 (0.56%) showed activity. The list shows a part of the results.
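Note: static incubation at 37 °C against the wild-type strain, values averaged over two biological replicates.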

In the assay the test system is Escherichia coli K-12 BW25113. The assay is described as follows: relative growth (OD600 normalised to plate interquartile mean) (fraction); higher = less growth inhibition, active = 0.2 or less. As to conditions: 50 µM; LB; incubation time: overnight (16-24 h).
Consider `C[C@H]1CN([C@@H](C)CO)C(=O)Cc2cc(NC(=O)Nc3ccc(C(F)(F)F)cc3)ccc2O[C@H]1CN(C)S(=O)(=O)c1ccc(Cl)cc1`, for which the relative growth was inactive: 1.02.
To `C[C@H](CO)N1C[C@H](C)[C@@H](CN(C)C(=O)Nc2ccccc2)Oc2ccc(NS(C)(=O)=O)cc2C1=O` belongs inactive: 0.992.
The result for `C[C@@H]1CN([C@H](C)CO)S(=O)(=O)c2ccc(C#Cc3ccccc3)cc2O[C@@H]1CN(C)S(=O)(=O)c1ccccc1F` reads inactive: 1.03.
Turning to `C[C@H](CO)N1C[C@H](C)[C@H](CN(C)Cc2ccc(-c3ccccc3)cc2)Oc2ccc(NC(=O)Nc3ccc4c(c3)OCO4)cc2CC1=O`, the relative growth was inactive: 1.02.
To `CC(C)NC(=O)N(C)C[C@H]1Oc2ccc(NC(=O)Cc3ccccc3)cc2CC(=O)N([C@@H](C)CO)C[C@@H]1C` belongs inactive: 0.976.
The result for `C=C(C)c1c2c(c(Cl)c3ccccc13)C[N+](CC)(CC)C2` reads inactive: 1.04; that for `CCc1nc2[nH]c(C)cc(=O)n2n1`, inactive: 0.901; that for `C[C@H](CO)N1C[C@H](C)[C@H](CN(C)S(=O)(=O)c2ccccc2)Oc2ccc(NS(C)(=O)=O)cc2CC1=O`, inactive: 1.03.
The result for `COc1ccc(CCNC(=O)[C@@]2(Sc3ccc(C)cc3)CC(=O)N(Cc3ccccc3Cl)[C@@H]2c2ccc(CO)cc2I)cc1` reads inactive: 0.991; that for `COc1cc(/C=C/C(=O)N(C)CCN(C)C(=O)/C=C/c2cc(OC)c(OC)c(OC)c2)cc(OC)c1OC`, inactive: 0.978; that for `CC(C)(C)[C@H]1C=C(C(=O)N2CCCCCCC2)O[C@@H](OCc2ccc(COC(=O)NCCCCCC(=O)NO)cc2)C1`, inactive: 0.992.
For the compound `C[C@@H]1CN([C@H](C)CO)C(=O)c2cccc(NC(=O)Nc3cccc4ccccc34)c2O[C@H]1CN(C)C(=O)NC1CCCCC1`, the relative growth is inactive: 0.975.
To `C[C@H]1CN([C@@H](C)CO)C(=O)c2cc(C#CC3(O)CCCC3)cnc2O[C@H]1CN(C)S(=O)(=O)c1ccccc1` belongs inactive: 1.02.
The result for `C[C@@H]1CN([C@@H](C)CO)C(=O)c2cccc(NC(=O)c3cnccn3)c2O[C@H]1CN(C)S(=O)(=O)c1ccc(Cl)cc1` reads inactive: 0.971; that for `COc1cccc(NC(=O)N2C[C@H](O)COC[C@H]3O[C@H](CC(=O)NC4Cc5ccccc5C4)CC[C@@H]32)c1`, inactive: 0.932.
As to `Cn1ncc2c(NN3C(=O)CCC3=O)ncnc21`, the relative growth was inactive: 1.02.
The result for `Cc1noc(C)c1NC(=O)Nc1cccc2c1O[C@@H](CN(C)S(=O)(=O)c1ccccc1)[C@H](C)CN([C@@H](C)CO)C2=O` reads inactive: 1.01; that for `O=C(CCCl)NCCc1ccccc1`, inactive: 1.07; that for `Cc1ccc(-c2cnc3c(c2)C(=O)N([C@H](C)CO)C[C@H](C)[C@H](CN(C)C(=O)Cc2cccnc2)O3)cc1`, inactive: 1.
`CC(/C=C/C(=O)NO)=C\c1ccccc1OC[C@@H]1[C@H]2C[C@H]3c4[nH]c5ccccc5c4CCN3C[C@@H]2CC[C@@H]1O`: the relative growth is inactive: 1.
Regarding `C[C@@H]1CCCCO[C@@H](CN(C)S(=O)(=O)c2ccc(Cl)cc2)[C@@H](C)CN([C@@H](C)CO)C(=O)c2cc(NC(=O)NC3CCCCC3)ccc2O1`, the relative growth is inactive: 0.995.
Consider `C[C@H]1CCCCO[C@@H](CN(C)Cc2ccccc2)[C@@H](C)CN([C@@H](C)CO)C(=O)c2cc(NC(=O)C3CCCCC3)ccc2O1`, for which the relative growth is inactive: 0.962.
To `CC(C)NC(=O)Nc1cccc2c1O[C@H](CN(C)Cc1ccc3c(c1)OCO3)[C@H](C)CN([C@H](C)CO)C2=O` belongs inactive: 1.
As for `C[C@H](CO)N1C[C@H](C)[C@H](CN(C)Cc2ccc(Cl)c(Cl)c2)Oc2ccc(NS(=O)(=O)c3ccc(F)cc3)cc2C1=O`, the relative growth is inactive: 1.01.
The result for `C[C@H]1CN([C@@H](C)CO)C(=O)CCCn2nncc2CO[C@H]1CN(C)S(=O)(=O)c1cn(C)cn1` reads inactive: 0.976.
To `C[C@H]1CCCCO[C@@H](CN(C)C(=O)CCC(F)(F)F)[C@@H](C)CN([C@@H](C)CO)C(=O)c2cc(NS(=O)(=O)c3ccc(F)cc3)ccc2O1` belongs inactive: 0.885; to `C[C@@H]1CCCCO[C@H](CN(C)Cc2ccc(Cl)c(Cl)c2)[C@@H](C)CN([C@@H](C)CO)C(=O)c2cc(NC(=O)Nc3ccc(C(F)(F)F)cc3)ccc2O1`, inactive: 1.03.
To `C[C@H]1CCCCO[C@H](CN(C)C(=O)Nc2ccc3c(c2)OCO3)[C@@H](C)CN([C@@H](C)CO)C(=O)c2cc(NC(=O)C3CCCCC3)ccc2O1` belongs inactive: 1.01.
Turning to `Cc1ccc(S(=O)(=O)Nc2ccc3c(c2)C(=O)N([C@H](C)CO)C[C@@H](C)[C@H](CN(C)Cc2ccc(Cl)c(Cl)c2)OCCCC[C@@H](C)O3)cc1`, the relative growth is inactive: 0.966.
The result for `COc1ccc(NC(=O)Nc2ccc3c(c2)C(=O)N([C@H](C)CO)C[C@H](C)[C@@H](CN(C)C(=O)Nc2ccccc2)OCCCC[C@H](C)O3)cc1` reads inactive: 1.03; that for `CC(=O)Nc1nnc(S(N)(=O)=O)s1`, inactive: 1.1; that for `C[C@@H]1CCCCO[C@H](CN(C)C(=O)Nc2ccc(C(F)(F)F)cc2)[C@@H](C)CN([C@H](C)CO)C(=O)c2cc(NS(=O)(=O)c3ccc(Cl)cc3)ccc2O1`, inactive: 0.842.
To `C[C@@H]1CN([C@@H](C)CO)C(=O)c2cc(NC(=O)CCC(F)(F)F)ccc2O[C@@H]1CN(C)C(=O)Nc1ccc(C(F)(F)F)cc1` belongs inactive: 0.99; to `CCCCC(CC)CCC(CC(C)C)OS(=O)(=O)[O-].[Na+]` (stereo not given), inactive: 0.746; to `CC(=O)Nc1c(I)cc(I)c(C(=O)O)c1I`, inactive: 1.16.
The result for `Cc1ccc(S(=O)(=O)Nc2ccc3c(c2)C(=O)N([C@@H](C)CO)C[C@H](C)[C@H](CN(C)C(=O)C2CCCCC2)OCCCC[C@H](C)O3)cc1` reads inactive: 0.979.
As to `Cc1cc2cc3c(C)cc(=O)oc3c(C)c2o1`, the relative growth was inactive: 1.04.
The result for `C[C@@H]1CN([C@H](C)CO)C(=O)c2ccccc2-c2ccccc2CO[C@H]1CN(C)C(=O)Nc1ccc(-c2ccccc2)cc1` reads inactive: 0.999.
The result for `O=C(C[C@@H]1C[C@@H]2c3cc(NC(=O)Cc4ccncc4)ccc3O[C@@H]2[C@H](CO)O1)NCCN1CCCCC1` reads inactive: 1.
With `C[C@H]1CN([C@@H](C)CO)C(=O)CCCn2nncc2CO[C@H]1CN(C)S(=O)(=O)c1ccc(Oc2ccccc2)cc1`, the relative growth was inactive: 1.01.
The result for `CC(C)Oc1ccc2c(=O)c(-c3ccccc3)coc2c1` reads inactive: 1.12; that for `COc1ccc(NC(=O)N(C)C[C@H]2OCCCC[C@@H](C)Oc3ccc(NC(=O)c4ccncc4)cc3C(=O)N([C@@H](C)CO)C[C@@H]2C)cc1`, inactive: 0.974; that for `NNC(=O)[C@@H]1C(c2ccccc2)[C@H]1C(=O)NN` (stereo not given in full), inactive: 1.04.
Regarding `C[C@@H]1CN([C@@H](C)CO)C(=O)c2cc(C#Cc3ccccc3F)cnc2O[C@H]1CN(C)C(=O)C1CCOCC1`, the relative growth was inactive: 0.948.
To `Cc1noc(C)c1S(=O)(=O)Nc1ccc2c(c1)C(=O)N([C@@H](C)CO)C[C@@H](C)[C@@H](CN(C)Cc1ccc(Cl)c(Cl)c1)OCCCC[C@@H](C)O2` belongs inactive: 0.953.
`COc1ccc(NC(=O)N(C)C[C@@H]2OCCCC[C@@H](C)Oc3ccc(NC(=O)Nc4cccc5ccccc45)cc3C(=O)N([C@@H](C)CO)C[C@H]2C)cc1`: the relative growth is inactive: 1.01.
Take `COCCOC(=O)N1C(=O)[C@@]2(c3cc(C#CCNC(N)=O)ccc31)[C@H](c1ccc(OCCO)cc1)N1[C@H](c3ccccc3)[C@H](c3ccccc3)OC(=O)[C@H]1[C@@H]2C(=O)N1CCc2cc(OC)c(OC)cc2C1`: the relative growth was inactive: 1.03.
As to `C[C@H]1CN([C@@H](C)CO)C(=O)Cc2cc(NC(=O)Nc3ccccc3)ccc2O[C@H]1CN(C)C(=O)Nc1ccc(C(F)(F)F)cc1`, the relative growth was inactive: 1.02.
With `Cc1noc(C)c1S(=O)(=O)Nc1ccc2c(c1)C(=O)N([C@H](C)CO)C[C@H](C)[C@H](CN(C)CC1CCCCC1)OCCCC[C@@H](C)O2`, the relative growth was inactive: 0.983.
The result for `C[C@H](CO)N1C[C@H](C)[C@@H](CN(C)S(=O)(=O)c2ccc(F)cc2)Oc2ccc(NC(=O)Nc3ccc(C(F)(F)F)cc3)cc2C1=O` reads inactive: 0.974; that for `CC(C)NC(=O)Nc1ccc2c(c1)CC(=O)N([C@H](C)CO)C[C@@H](C)[C@H](CN(C)S(=O)(=O)c1cn(C)cn1)O2`, inactive: 1.05.
In the case of `C[C@@H]1CN([C@@H](C)CO)C(=O)c2cc(NC(=O)Nc3ccc(C(F)(F)F)cc3)ccc2O[C@@H](C)CCCCO[C@@H]1CN(C)Cc1ccc(C(F)(F)F)cc1`, the relative growth was inactive: 0.997.
`Cc1ccccc1OCC(=O)NCC(=O)O`: the relative growth is inactive: 1.02.
The result for `Cn1cnc(CCNC(=O)C[C@@H]2CC[C@H]3[C@@H](COC[C@@H](O)CN3C(=O)Nc3ccc(Cl)cc3)O2)c1` reads inactive: 0.917.
To `Cc1ccc(S(=O)(=O)N(C)C[C@H]2Oc3ccc(NC(=O)NC(C)C)cc3C(=O)N([C@H](C)CO)C[C@H]2C)cc1` belongs inactive: 1.03; to `Cc1noc(C)c1S(=O)(=O)Nc1ccc2c(c1)C(=O)N([C@@H](C)CO)C[C@H](C)[C@@H](CN(C)S(=O)(=O)c1ccccc1)O2`, inactive: 1.
The result for `O=C(CCCCCCC(=O)Nc1ccc([C@H]2C[C@H](c3ccccc3)O[C@H](c3ccncc3)O2)cc1)NO` reads inactive: 0.955; that for `COc1ccc(S(=O)(=O)Nc2ccc3c(c2)CC(=O)N([C@H](C)CO)C[C@@H](C)[C@@H](CN(C)S(=O)(=O)c2ccccc2)O3)cc1`, inactive: 0.998; that for `C[C@@H]1CN([C@H](C)CO)C(=O)c2cc(-c3cccnc3)cnc2O[C@H]1CN(C)Cc1ccc(-c2ccccc2)cc1`, inactive: 1.03.
On to `Cn1c2c(c(=S)[nH]c1=O)CCC2`, for which the relative growth was inactive: 0.95.
